Among the data in PubChem BioAssay AID1346428 (National Center for Advancing Translational Sciences (NCATS), 2018) are activation values, retold here.

Several values for one entry are separate records, joined by “and”; a condition that tells them apart may be missing. Equal values may be shown once. Screen size: about 48,000 compounds; about 1,200 (2.5%) were called active. Inconclusive results (about 2%) are left out.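 The calls were made as follows: active = activation of at least 60% and not above a set upper limit (about 1 call in 100 departs from these limits); inconclusive = activation of 40% to 60%, or above that upper limit; inactive = activation under 40%.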 The list shows a part of the results.

Sequence of UniProt O75388 (O75388 whole entry, looked up): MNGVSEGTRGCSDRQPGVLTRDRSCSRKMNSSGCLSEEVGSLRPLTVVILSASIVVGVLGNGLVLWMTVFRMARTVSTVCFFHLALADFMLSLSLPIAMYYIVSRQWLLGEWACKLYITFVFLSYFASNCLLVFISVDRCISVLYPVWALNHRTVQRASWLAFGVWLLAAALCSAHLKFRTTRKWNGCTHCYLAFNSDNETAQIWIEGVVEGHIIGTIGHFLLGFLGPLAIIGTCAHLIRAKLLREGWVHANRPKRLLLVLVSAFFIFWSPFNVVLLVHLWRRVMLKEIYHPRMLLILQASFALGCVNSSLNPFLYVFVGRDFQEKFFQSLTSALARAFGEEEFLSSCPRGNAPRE

This assay concerns the target Probable G-protein coupled receptor 32 (Homo sapiens) (UniProt O75388). Put plainly: qHTS for Agonists of Human Resolvin D1 Receptor DRV1. The settings on record: CHO-K1 GPR32 beta-arrestin PathHunter luminescence, 90 min; at 76.9 µM; stronger effect = higher value; zero percent set by DMSO-only wells. In a few lines:
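Beta-arrestin recruitment read-out: luminescence from complemented beta-Gal in CHO-K1 GPR32 PathHunter cells, measured 1 h after detection reagent at ambient temperature following 90 min compound exposure at 37 °C; DMSO served as basal (EC0) control.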
In the case of `Cc1cc(O)ccc1Cl`, the activation is inactive: 19.8%.

Regarding `O=C1OC(CCN2CCCCC2)OC1(c1ccccc1)c1ccccc1` (stereo not given), the activation is inactive: 36.1%.

As for `N[C@@H](Cn1ccc(=O)[nH]c1=O)C(=O)O`, the activation was inactive: -4.86%. Consider `COc1ccc(OC)c(NC(=O)Cn2cc(C(=O)c3ccccc3)c3ccccc32)c1`, for which the activation was inactive: -12.7%. `O=C(Nc1ccc(Cl)cc1C(=O)c1ccccc1)c1cc(Cl)cc(Cl)c1`: the activation is inactive: -3.98%. For `C=C(C)[C@H]1CN[C@H](C(=O)O)[C@H]1CC(=O)O`, the activation is inactive: 8.55% and inactive: 2.9%. As for `NC1CC1c1ccccc1` (stereo not given), the figure is inactive: -5.38%.

Regarding `CCOc1ccc2nc(NC(=O)c3cccn(Cc4ccccc4)c3=O)sc2c1`, the activation is inactive: 9.98%. As for `CSc1ccc(CN2CCN(C(=O)COc3ccc(C)cc3)CC2)cc1`, the figure is inactive: -8.29%; as for `C=CCN1C[C@@H](C)N([C@H](c2ccc(C(=O)N(CC)CC)cc2)c2cccc(OC)c2)C[C@@H]1C`, inactive: -2.53%; as for `COc1ccc(CN2CCNCC2)c(OC)c1OC`, inactive: -7.61%.

As to `COc1ccc2c(c1)c(CCN1CCOCC1)c(C)n2C(=O)c1cccc(Cl)c1Cl`, the activation is inactive: -30.2%.

Consider `CCCN(CCC)CCc1c[nH]c2ccc(C(N)=O)cc12`, for which the activation is inactive: -4.56%. With `CC(C)(N)Cc1ccc(Cl)cc1`, the activation is inactive: -6.76%. As for `COc1ccc(C)cc1NC(=O)c1cccn(Cc2cccc([N+](=O)[O-])c2)c1=O`, the figure is inactive: -6.1%.

As to `COCCOCCO`, the activation was inactive: -25.1%. In the case of `c1ccc2c(N3CCNCC3)cccc2c1`, the activation is inactive: -13%. The figure for `Cc1ccc(-n2c(/C=C/c3cccs3)nc3ccccc3c2=O)cc1C` is inactive: -29.3%.

Consider `COc1cccc(/C=C/c2nc3ccccc3c(=O)n2-c2ccc(Cl)cc2)c1OC`, for which the activation is inactive: -20.6%. The figure for `O=C(N[C@H]1CN2CCC1CC2)c1ccc(Cl)cc1` is inactive: -5.71%; for `O=[N+]([O-])c1ccc2nc(N3CCNCC3)ccc2c1` it is inactive: -7.6%. For the compound `CCCC12CN3CC(CCC)(CN(C1)C3c1ccccn1)C2=O` (stereo not given), the activation is inactive: -2.59%. The figure for `C[C@]12C=CC(=O)C=C1CC[C@@H]1[C@@H]2CC[C@@]2(C)[C@H]1CC[C@]2(C)O` is inactive: -0.0299%; for `C[C@]12CC[C@H]3[C@@H](CCC4=CC(=O)CC[C@@H]43)[C@@H]1CC[C@@H]2O` it is inactive: -2.63%. As for `COc1cc(CC(C)N)c(OC)cc1Br` (stereo not given), the figure is inactive: -24.6%; as for `COc1ccc(OCC(=O)N2CCN(CCc3ccccn3)CC2)cc1`, inactive: 19.9%; as for `C[N+]1(C)C2CCC1CC(OC(=O)C(CO)c1ccccc1)C2` (stereo not given), inactive: 8.09% and inactive: 1.77%. The figure for `O=c1c2ccccc2[se]n1-c1ccccc1` is inactive: -3.32%; for `CCCN(CCC)C1Cc2cc(OC)c(OC)cc2C1` it is inactive: -2.67%. Consider `Clc1ccccc1N1CCNCC1`, for which the activation was inactive: -3.8%.

On to `CC(C)c1ccc(NC(=O)CN2C(=O)CN=C(c3ccccc3)c3ccccc32)cc1`, for which the activation was inactive: -4.39%. As for `C[C@]12CC[C@H]3[C@@H](CC=C4C[C@@H](O)CC[C@@]43C)[C@@H]1CC[C@@H]2O`, the activation is inactive: 9.7%. The figure for `CC(C)(C)C(O)C(Oc1ccc(Cl)cc1)n1cncn1` (stereo not given) is inactive: -48.1%; for `c1ccc2c(c1)Nc1ccccc1S2` it is inactive: 41.1% and inactive: -14.5%.

Consider `Cc1cccc(CN2C(=O)CN=C(c3ccccc3)c3cc(Cl)ccc32)c1`, for which the activation is inactive: -11.9%. With `CN(C)CCc1c[nH]c2cccc(O)c12`, the activation is inactive: 0.604%. As for `CCCc1ccc(OCC(=O)Nc2ccc(Cl)cc2C(=O)c2ccccc2)cc1`, the figure is inactive: -7.11%; as for `CC(C)NC(C)Cc1ccc(I)cc1` (stereo not given), inactive: -12.9%; as for `COc1ccc(-c2nc(CN3C(=O)CN=C(c4ccccc4Cl)c4cc(Cl)ccc43)c(C)o2)cc1OC`, inactive: -25.3%. The figure for `COC(=O)N1CCN(C(=O)Cc2ccc(Cl)c(Cl)c2)C(CN2CCCC2)C1` (stereo not given) is inactive: -11.6%. As for `O=C(Cn1cc(C(=O)c2ccccc2)c2ccccc21)Nc1ccc(Br)cc1`, the activation was inactive: -11.2%.

Turning to `NCC(O)c1ccc(O)cc1` (stereo not given), the activation was inactive: -4.03% and inactive: -9.96%.

Take `N#Cc1nn(-c2c(Cl)cc(C(F)(F)F)cc2Cl)c(N)c1S(=O)C(F)(F)F` (stereo not given): the activation was inactive: 8.96%.

For the compound `Nc1ccc(Cl)cc1C(=O)c1ccccc1F`, the activation was inactive: 46.2%.

Regarding `N#Cc1ccccc1NC(=O)c1cccn(Cc2ccccc2)c1=O`, the activation was inactive: -1.36%. `NC(CCCCCP(=O)(O)O)C(=O)O` (stereo not given): the activation was inactive: -5.02%.

With `ClCc1cccc(Cl)c1`, the activation was inactive: 28.6%. The figure for `CCOC(=O)c1ccc(NC(=O)c2cccn(Cc3ccccc3F)c2=O)cc1` is inactive: 33.5%. On to `CN1CCc2cccc(Cl)c2CC1`, for which the activation was inactive: 2.25%. As for `COc1c2c(cc3c1OCO3)CCN(C)C2`, the figure is inactive: -6.42%; as for `Nc1ccc(Cl)cc1`, inactive: 20%; as for `C=CCN1CC[C@]23CCCCC2[C@H]1Cc1ccc(O)cc13` (stereo not given in full), inactive: -11.3%.

With `CCC(C(=O)Nc1ccccc1F)N1C(=O)CN=C(c2ccccc2)c2ccccc21` (stereo not given), the activation is inactive: -105%.

With `CN[C@@H](C)[C@H](O)c1ccccc1`, the activation was inactive: 5.92%. `CCc1ccc(-n2nc(C)c3c2NC(=O)CSC3c2ccc(OC)cc2OC)cc1` (stereo not given): the activation was inactive: 1.01%. As for `COc1ccc(Cl)cc1NC(=O)c1sc2nc3c(cc2c1N)N1CCC3CC1`, the figure is inactive: 36.2%. As for `CC12NC(Cc3ccccc31)c1ccccc12` (stereo not given), the figure is inactive: -10.5%.

On to `COC(=O)[C@@H](N)CCCN/C(N)=N/[N+](=O)[O-]`, for which the activation is inactive: 6.52%. As for `COP(=O)(OC)C(O)C(Cl)(Cl)Cl` (stereo not given), the figure is inactive: 11.9%; as for `CC(CC(C#N)(c1ccccc1)c1ccccc1)N(C)C` (stereo not given), inactive: 12.8%; as for `Cc1ccc(-n2c(/C=C/c3ccccc3)nc3ccccc3c2=O)cc1Cl`, inactive: -14.3%.

In the case of `C=CCN1CC[C@]23c4c5ccc(O)c4O[C@H]2C(=O)CC[C@@]3(O)[C@H]1C5`, the activation was inactive: 21%.

As for `O=C1CC(c2ccccc2Br)c2c(c3ccccc3oc2=O)O1` (stereo not given), the activation is inactive: 6.31%. The figure for `OCCOc1ccccc1` is inactive: 4.84%. As for `Cn1cc(C2=C(c3cn(C4CCN(Cc5ccccn5)CC4)c4ccccc34)C(=O)NC2=O)c2ccccc21`, the figure is inactive: -42.8%.
